According to the supplement of paper PMC3334620:
Over roughly 33,000 sequences, “E-score (-0.5 to 0.5)” has its median near -0.021; the highest 2% begin near 0.32. The list shows a part of the results.

Target: T1, Zap1 (UniProt P47043)
T1 sequence: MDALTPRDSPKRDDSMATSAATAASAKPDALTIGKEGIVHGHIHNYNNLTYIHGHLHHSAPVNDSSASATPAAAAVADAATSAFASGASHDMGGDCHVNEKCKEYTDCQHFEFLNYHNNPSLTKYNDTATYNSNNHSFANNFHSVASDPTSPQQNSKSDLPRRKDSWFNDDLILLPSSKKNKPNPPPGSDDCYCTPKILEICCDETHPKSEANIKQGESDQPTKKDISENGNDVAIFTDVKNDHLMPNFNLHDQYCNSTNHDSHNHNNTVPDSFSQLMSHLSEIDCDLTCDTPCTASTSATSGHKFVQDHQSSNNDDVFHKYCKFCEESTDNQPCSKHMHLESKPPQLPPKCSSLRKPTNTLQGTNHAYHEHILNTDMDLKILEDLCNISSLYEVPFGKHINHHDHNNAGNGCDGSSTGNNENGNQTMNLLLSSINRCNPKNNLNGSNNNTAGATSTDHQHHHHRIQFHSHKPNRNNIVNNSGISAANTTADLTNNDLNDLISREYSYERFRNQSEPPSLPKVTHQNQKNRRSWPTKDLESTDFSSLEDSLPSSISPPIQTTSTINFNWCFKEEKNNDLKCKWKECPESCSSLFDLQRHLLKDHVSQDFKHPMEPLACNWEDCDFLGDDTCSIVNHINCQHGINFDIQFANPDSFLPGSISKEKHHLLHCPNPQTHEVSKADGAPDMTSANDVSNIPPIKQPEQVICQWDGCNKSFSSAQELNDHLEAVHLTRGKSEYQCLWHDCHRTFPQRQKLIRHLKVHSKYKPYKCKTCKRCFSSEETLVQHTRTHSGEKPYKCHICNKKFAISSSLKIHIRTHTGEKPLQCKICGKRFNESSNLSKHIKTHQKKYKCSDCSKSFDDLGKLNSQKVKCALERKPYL
Assay: PBM E-score (8-mer binding enrichment) (E-score (-0.5 to 0.5)); higher = stronger / more preferred TF binding; most listed sequences are background and not binding sites
Conditions: protein concentration: 200 nM; construct: GST-full length
Summary of the method: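 Bound GST-tagged yeast transcription factors, applied at about 100-200 nM to double-stranded universal all-10-mer Agilent arrays, were detected with fluorescent anti-GST. Scans were normalised with masliner. A modified Wilcoxon-Mann-Whitney statistic, the E-score, was assigned to each ungapped eight-base word pooled with its reverse complement by the Universal PBM Analysis Suite.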

Sequence	PBM E-score
ATTCGTTA	0.0931
AATGCATG	0.0817
CGGACTGC	-0.168
ATTGAGCG	0.00268
ACCCATAA	0.251
AGGCATGG	-0.0823
GCTGCCCC	-0.16
CAGTTAAC	0.07
GCCCCCTA	-0.276
AGATCGAG	-0.0707
CGCCCGCA	-0.122
CACGCTAA	-0.0641
GGAAGTCA	-0.137
AGCATGCC	-0.317
AGTGCCTG	-0.154
GGGGTCAA	0.266
AAACGAGA	-0.0218
AATGCTTA	-0.00701
CGAATCTA	-0.0931
GATCCCCA	0.0296
CCCTGTTC	-0.109
TGGCAGAA	-0.0806
CAACTGGG	-0.165
ATCTCGCG	0.114
GAGCACAC	-0.0945

Sequence	PBM E-score
GTTGCATA	0.0598
CTTCCAAG	-0.0666
ATCTACTA	0.186
AGTCTCAG	-0.196
ATGTTAAC	0.137
AAGCCATG	-0.153
ACTGTTTA	0.0575
CACTCAGG	0.156
AACCCACC	0.343
AACATAAG	0.136
AGCAGCTA	-0.148
GACACCGA	0.0147
CCAATCGA	-0.00131
GATACTTA	0.0258
CCTGGCTC	-0.13
ACGTCTAG	-0.0284
GCCTAGGC	-0.0827
AGTGACCG	0.115
ACTCACGG	0.0383
ACCGTGGA	0.0209
CAGTAAGA	0.0404
CCGACGAA	-0.0653
AGTGGTGC	0.00684
ACCCCCTG	-0.07
AGGTGAGC	-0.167

Sequence	PBM E-score
GCCTGACC	0.0483
GTCAACCA	-0.0132
ATGACGAC	0.0124
ACTAAACA	0.138
AACCAACA	0.254
ATCATCCC	0.0399
CGTTTATC	0.0679
CGTCATTA	-0.145
ATAGTGGG	-0.0397
ACCACGCG	0.23
CGCGTGGA	-0.119
GTTAGGGA	0.0101
CGTGGCAG	-0.184
CACGTTCG	-0.38
CTAGGAGA	-0.238
AACCGCGT	0.227
ATACAAAC	0.117
GTACTTAA	0.0401
CACAGGTC	0.0872
ATAGGCCG	-0.136
CGTTGCCC	-0.259
GAATTGGA	0.183
CCCCTAAG	0.158
CACGTAGC	-0.287
CATGAACC	0.149

Sequence	PBM E-score
TTAATAAA	0.263
TGACTCCA	-0.32
GTAATGGA	0.134
GACCATGC	-0.0365
AAGACTTC	-0.202
ACTCCTGG	-0.119
CCGATACG	0.0138
CCGTCAGG	0.146
AGCCTGCC	-0.319
GGCGCCGA	-0.146
AACGAACA	0.141
CAACGTCA	-0.18
TCCAAAAA	0.138
GAGACCGA	-0.14
ATAAGCCG	-0.0833
TCAAGTAA	0.109
CTTAAATC	0.0446
GCGTTCAA	0.0881
CTCGTTCA	-0.00018
ATCCCAGG	-0.149
CCAGTTAC	-0.0945
TGGCAAAA	-0.031
CCTAAAAA	0.179
ACCAGACT	0.138
ATTTGTGG	0.259

Sequence	PBM E-score
ACAATTAT	0.0878
ACGAAGTG	0.0434
ACAGCCTA	0.129
ATCAACTG	-0.0175
AAGAGGTC	0.249
GCCGTTAA	0.126
ACATAGCG	-0.0801
CTTTGCAC	0.148
CAGGAGAC	-0.178
GCATCCTA	-0.093
AGTCCGTA	-0.0946
GAAGAGCC	-0.201
CCCCTATC	-0.169
ACCGCACG	0.0756
ACTCGCAC	-0.129
ATATAGTG	0.113
CAATTGCG	-0.0256
GTTCACTA	0.179
CCCGTCGG	0.0165
AATGTTCC	-0.116
AGGTCATC	0.373
GCCCCAAC	0.147
ACCCTGAC	0.335
ATTCGTCA	-0.154
GGATCTGA	-0.194

Sequence	PBM E-score
CCTTAGGC	-0.221
AGTGTGCG	-0.187
AGTATCTA	0.0908
ATGGTGTC	-0.064
ACGATTCC	-0.169
CAATGGGA	-0.162
GTTATTGA	0.279
ATGGTATC	0.183
CGCCTAGA	-0.164
CATAGGCA	-0.303
TCCCCGAA	-0.153
GGTCCTAA	0.13
GGGAAGTA	-0.0289
CCGCTGTA	-0.00971
CGCCCACG	-0.147
ACGACTCA	-0.287
CAATCGCA	0.0279
ATGGGCCG	-0.0792
TTAATTAA	-0.0493
GTCACTTA	0.278
GACGCATC	-0.128
AAGATTAT	-0.0645
CCGGGTCC	0.0968
TAATACAA	0.176
AATTTAGA	0.0825

Sequence	PBM E-score
GATTATTA	0.122
TTCTACAA	0.121
GTTGCAGA	0.173
TCCCTTAA	0.0619
TAGGTATA	0.254
AAATATGC	-0.169
CCGTATTA	0.227
GAATGGAC	0.0207
CCAACCGC	0.0172
AAATCCCA	0.0646
GGTGGCTA	-0.0361
TCCGCCCA	-0.206
AGCTGTGA	-0.0637
CTTTAGTA	0.117
AGAATGAT	0.0314
CAATAGTA	0.12
AAGTACTC	-0.171
AAATCCAG	0.0865
GTTCGTAA	0.135
GTTGTCCA	0.0758
GACCAGGC	-0.109
ACGCTTAT	-0.181
GTGCAGAA	-0.136
AGATTAGC	-0.146
AGAGACAG	-0.0449

Sequence	PBM E-score
GCAGAGCA	-0.303
AAGGTCAA	0.279
AACTCCAC	-0.127
CTTGCGAC	-0.127
ATAGGGTA	0.38
GAGTCCTA	-0.0209
CTAGGATC	-0.157
TAATTCCA	-0.00365
ATTTGGAA	0.0827
GCTTAACA	-0.0361
ATCGAGCC	-0.185
CGGCCCCA	-0.0836
TAGTGGAA	-0.0841
CTCACATA	0.145
TCGGTGCA	-0.136
CATGCATA	-0.0182
TGAAGGCA	-0.0983
CCGGCAGA	-0.245
CGGCGATC	-0.0265
GCGCCGGA	-0.0658
AAAGGTTC	0.293
TCAGTGCA	-0.168
AAGGGAAG	-0.134
AGAATACG	-0.0561
CTTGGTCC	-0.0749

Sequence	PBM E-score
CACAACAG	-0.0136
GAACACAC	-0.0774
AACCGGGA	0.133
CAGCAGGA	-0.153
CAAATCCG	-0.188
CAATGGTC	0.0798
AAGGTGTA	0.0926
CACTGCCA	-0.0495
AAAGCATT	-0.0743
CCATGCAA	0.00015
ACTGGCTG	-0.244
GCGACTAC	-0.0318
ACAACTCC	-0.0349
AACCCAGT	0.181
GGGGGACC	-0.0852
CGATCTAA	-0.0485
CTGCTTCC	-0.292
CTATACGC	-0.131
AGAAGTTC	-0.218
ATAATGGC	0.0492
GTCGAAAA	0.112
CAGTCCCA	-0.119
AATGCTCC	-0.335
AGCCTGGG	-0.0627
CAACCTAG	0.0544

Sequence	PBM E-score
ATCCGGGG	-0.0183
TAAAACTA	0.146
TGGCGACA	-0.121
AATTAACA	0.12
CCTTAACC	0.438
AATTGACG	-0.147
CGGATACA	-0.0534
CATGGCCA	0.207
GATTAGGC	-0.0423
ACGATTAC	0.00152
CCAGAGCA	0.0133
AGATCCTG	-0.117
CAGTACCA	0.214
CCGCATCA	-0.0394
GTTACGCA	0.208
CAGTGGAA	-0.0442
ATGACACA	0.161
AATTGATA	0.0582
CTTCCTCA	-0.105
ATGATCGC	-0.107
CCCCTCTC	-0.199
AGCGGGAA	-0.268
CGTCACAA	-0.0229
CGAGACCA	0.186
ATCATGTA	0.0425

Sequence	PBM E-score
GATACCGC	0.106
ATTCGTAA	0.132
CAGTTAGA	-0.0791
GCCTGAGA	-0.0989
AAGAACTC	0.0396
TATACACA	0.19
GCAAGCAC	-0.267
ATGTCATG	0.0809
ATACGCTG	-0.0449
TCCTATCA	-0.102
ATTCTATA	0.0331
CATGGGCG	0.00918
GGACGAGA	-0.0403
CTAAGGTC	0.151
CTACAAGC	-0.173
CTCGTTCC	-0.14
GGTAGCGA	0.244
ACAAAATG	0.131
AACTGGCG	-0.0757
AAGGTAAT	0.322
CTACCTAG	0.104
CGAGGGAC	-0.155
GATGTCGA	0.0118
CTAAGCCC	-0.245
AGTTTGCG	-0.00356

Sequence	PBM E-score
AATATTTC	0.151
TAGGAGCA	-0.0671
CTGCCCTA	-0.0669
AAGAATGG	0.0435
CGATCGTA	0.031
GCAGCCAC	-0.169
CCCGGTTA	0.25
ACCCTGTG	0.367
ATACTCCA	-0.0866
CGAACTCA	0.0393
CAATCTCA	0.117
CGGCCGCA	-0.129
AAACCAGT	-0.107
AACTCCAT	0.0901
AAACGCGT	-0.134
GCGGTTCC	0.217
AAAAGTCG	-0.033
ACGGAATC	-0.0608
GATTCTAC	-0.167
GTGATTAA	0.23
GCACGACA	-0.111
TCGAGAGA	-0.0777
CAGAGGGC	-0.213
ACTACAGG	0.133
CTACCAGC	-0.116

Sequence	PBM E-score
ATGACGAA	-0.026
ACTCGGAC	0.0249
AGACTGCC	-0.405
CACCACCG	-0.019
ACTAAGCT	0.0651
AGAAGCGG	-0.0937
CCGTGGGC	-0.107
AGCCAGTC	-0.234
AGTTTGAG	0.0386
AGTATGAA	-0.0476
GCAGTCGC	-0.0577
ATAGGGGA	-0.202
GGCCGTGA	0.305
ATGAGGCA	-0.189
ATATCATA	0.117
ATATGCGC	-0.087
GACGTTGC	-0.16
AGGTACCC	0.451
CATCCAAC	-0.0586
CTTATAGC	-0.0488
CTATGAGC	-0.127
CATAGTAG	0.0582
AAGTCCCC	-0.101
GAGGGTGA	0.126
AACCCGGG	0.324

Sequence	PBM E-score
AAGTACGG	-0.114
TAGCTAGA	-0.0796
CACGACTC	-0.0638
GAACAACC	0.232
CGGCACCG	-0.0772
AATGCCGC	-0.0546
ATTGTAAG	-0.0918
CAATGCTC	-0.176
CAAACTTG	0.0239
ACGCGCAC	-0.223
GAAGAGCA	-0.213
CCACGCAA	0.142
ATCCACCA	-0.235
CAAGAGCA	-0.245
CTTGCTTA	0.0317
TACACCGA	0.0144
AACCCGGT	0.249
ATATGCCA	-0.0681
GAAAAGGC	-0.00555
